According to PubChem BioAssay AID504339 (National Center for Advancing Translational Sciences (NCATS), 2011):
Out of some 390,000 compounds screened, about 17,000 (4.4%) were called active. The shares of active, inactive and inconclusive entries below differ from those in the screen. Calls come from the whole dose curve; as a rule, active = well fitted inhibition curve with a large enough effect; inconclusive = small, poorly fitted or top-dose-only effect; inactive = no such curve, though single readings can be large or run the other way. Potencies of inconclusive entries are doubtful fits and often do not repeat.

Each molecule was assayed against Lysine-specific demethylase 4A (Homo sapiens) (UniProt O75164) (assay: qHTS Assay for Inhibitors of JMJD2A-Tudor Domain). Settings: AlphaScreen JMJD2A-Tudor / H3K4me3 peptide binding; activity change, negative = inhibition: at 114 µM (top of the series).
% is set by controls: 0 for no effect and ±100 for the full control effect; potency is the fitted concentration of half-maximal effect; tags give direction and shape of the fitted curve.
Note: nearly all actives have a fitted effect of over 50% in size.

Sequence of UniProt O75164 (O75164 whole entry, looked up, the tested form may be a part): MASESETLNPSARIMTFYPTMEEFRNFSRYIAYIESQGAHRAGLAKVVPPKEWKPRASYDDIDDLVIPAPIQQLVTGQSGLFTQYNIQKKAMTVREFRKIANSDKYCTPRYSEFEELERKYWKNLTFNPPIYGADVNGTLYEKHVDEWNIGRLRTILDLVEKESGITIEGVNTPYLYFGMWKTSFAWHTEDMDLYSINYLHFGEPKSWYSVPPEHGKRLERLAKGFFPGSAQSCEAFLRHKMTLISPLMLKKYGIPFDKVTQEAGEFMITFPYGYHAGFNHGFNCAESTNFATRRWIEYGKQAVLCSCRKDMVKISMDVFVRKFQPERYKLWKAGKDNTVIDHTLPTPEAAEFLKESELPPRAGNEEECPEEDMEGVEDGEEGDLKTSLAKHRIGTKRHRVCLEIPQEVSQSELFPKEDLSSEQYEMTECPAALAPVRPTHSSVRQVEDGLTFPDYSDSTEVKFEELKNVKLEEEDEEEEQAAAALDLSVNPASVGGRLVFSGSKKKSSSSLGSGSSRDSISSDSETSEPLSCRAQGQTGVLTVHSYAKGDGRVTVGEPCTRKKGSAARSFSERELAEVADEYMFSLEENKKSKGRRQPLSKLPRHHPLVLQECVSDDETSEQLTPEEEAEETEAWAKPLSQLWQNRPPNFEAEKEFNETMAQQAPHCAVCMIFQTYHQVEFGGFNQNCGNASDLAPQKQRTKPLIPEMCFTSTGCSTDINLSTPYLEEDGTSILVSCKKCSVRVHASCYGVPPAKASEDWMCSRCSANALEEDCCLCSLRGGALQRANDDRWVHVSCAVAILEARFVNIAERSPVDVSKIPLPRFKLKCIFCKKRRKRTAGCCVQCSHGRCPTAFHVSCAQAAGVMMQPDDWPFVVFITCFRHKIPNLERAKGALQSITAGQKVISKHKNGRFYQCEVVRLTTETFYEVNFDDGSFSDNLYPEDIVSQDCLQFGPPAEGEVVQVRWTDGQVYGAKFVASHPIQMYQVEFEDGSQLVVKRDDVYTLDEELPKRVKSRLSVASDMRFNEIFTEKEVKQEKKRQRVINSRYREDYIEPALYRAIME

**Q.** `C#CCOCCOCCOCCNc1nc(N2CCN(C(=O)CCCCCCCCCCNC(=O)[C@H](CCCCN)n3cc(CCCC(=O)O)nn3)CC2)nc(N2CCN(C(=O)CCCCCCCCCCNC(=O)[C@@H]([C@H](C)O)n3cc(C)nn3)CC2)n1` was tested. Which Potency did it give?
**A.** inconclusive: 56.2 µM [inhibitor, partial curve]

**Q.** How did the Potency turn out when `COc1ccc(C2Nc3ccccc3C(=O)N2Cc2ccccc2)cc1Oc1ccc(NC(C)=O)cc1` (stereo not drawn) was run?
**A.** inconclusive: 56.2 µM [inhibitor, partial curve]

**Q.** For `Cc1c(C(=O)O/N=C(\N)c2ccccn2)cccc1[N+](=O)[O-]`, which Potency is on record?
**A.** active: 11.2 µM

**Q.** `C#CCOCCOCCOCCNc1nc(N2CCN(C(=O)C([C@@H](C)O)n3cc([C@@H](N)CCCCN)nn3)CC2)nc(N2CCN(C(=O)[C@H](CCCCN)n3cc([C@@H](N)CC(N)=O)nn3)CC2)n1` (stereo partly drawn) was tested. Which Potency did it give?
**A.** active: 79.4 µM

**Q.** `COc1cc(C(=O)NC(=S)Nc2ccc3c(c2)C(=O)N(C)C3=O)cc(OC)c1OC` was tested. Which Potency did it give?
**A.** inconclusive: 89.1 µM [inhibitor, single point]

**Q.** With `CCn1cc([N+](=O)[O-])c(C(=O)N2N=C(c3ccc4ccccc4c3)CC2c2ccccc2O)n1` (stereo not drawn) as the molecule, how does the Potency read?
**A.** inconclusive: 50.1 µM [inhibitor, partial curve]

**Q.** Which “activity change, negative = inhibition” value does the source give for `COc1cccc(Cn2c(-c3nonc3NC(C)=O)nc3ccccc32)c1` here?
**A.** inactive: -11.6%

**Q.** For `COc1ccc(N2CCN(C(=O)CCC(=O)N3Cc4ccccc4Oc4ncccc43)CC2)cc1`, which “activity change, negative = inhibition” value is on record?
**A.** inactive: -26.9%

**Q.** `COc1ccc(O)c(C(=O)c2coc(=N)c(C(=O)Nc3ccc(SC(F)F)cc3)c2)c1` was tested. Which Potency did it give?
**A.** inconclusive: 44.7 µM [inhibitor, partial curve]

**Q.** `Cc1cc(C)n(-c2nc(SCCN(C)C)c3c4c(sc3n2)CCCC4)n1` was tested. Which Potency did it give?
**A.** active: 56.2 µM

**Q.** For `O=c1ccc2cc(S(=O)(=O)Nc3ccc(OC(F)(F)F)cc3)ccc2[nH]1`, which Potency is on record?
**A.** inconclusive: 56.2 µM [inhibitor, partial curve]

**Q.** Which Potency does the source give for `COc1ccccc1Nc1nc(NCCC(C)C)nc(N)c1[N+](=O)[O-]` here?
**A.** inconclusive: 28.2 µM [inhibitor, partial curve]

**Q.** `COC(=O)c1ccc(Cn2c(SCc3ccc(F)cc3)nc3ccncc32)cc1` was tested. Which “activity change, negative = inhibition” value did it give?
**A.** inactive: -13.5%

**Q.** How did the Potency turn out when `CN=C(c1ccco1)n1c(=S)nc(-c2ccco2)n(C)c1=S` was run?
**A.** inconclusive: 79.4 µM [inhibitor, partial curve]

**Q.** Which Potency does the source give for `CNc1nc(NN)nc(Nc2ccccc2)n1` here?
**A.** active: 25.1 µM

**Q.** How did the Potency turn out when `CC(C)(C)c1n[nH]c2c1CCCC2` was run?
**A.** active: 89.1 µM

**Q.** How did the “activity change, negative = inhibition” value turn out when `O=C(COc1ccccc1F)Nc1ccc(OCc2cc(=O)n3ccccc3n2)cc1` was run?
**A.** inactive: 4.87%

**Q.** `Cc1cccc(-n2cc[nH]c2=S)c1C` was tested. Which Potency did it give?
**A.** active: 39.8 µM

**Q.** With `COc1ccc(-c2nnc(NC(=O)C3CCCN3S(=O)(=O)c3cccs3)o2)cc1` (stereo not drawn) as the molecule, how does the activity change, negative = inhibition read?
**A.** inconclusive: -64.1% [inhibitor]

**Q.** `COCCCN1C(=O)c2oc3ccccc3c(=O)c2C12C(=O)N(C)c1ccccc12` (stereo not drawn) was tested. Which “activity change, negative = inhibition” value did it give?
**A.** inactive: -7.64%

**Q.** Which “activity change, negative = inhibition” value does the source give for `CN(CC(=O)Nc1cccc(F)c1)C(=O)c1ccccc1OCCOc1ccccc1` here?
**A.** inactive: -8.97%

**Q.** For `Cc1ccc(Nc2c([N+](=O)[O-])c(=O)n(C)c3ccccc23)cc1C`, which Potency is on record?
**A.** inconclusive: 56.2 µM [inhibitor, partial curve]

**Q.** For `COc1cccc(-c2nc(-c3ccccc3)c(-c3ccccc3)[nH]2)c1OCC(=O)O`, which “activity change, negative = inhibition” value is on record?
**A.** inactive: -31%

**Q.** Which Potency does the source give for `CCOC(=O)c1cccc(NC(=O)NC(C)c2c(-n3cccc3)sc3c2CCN(C)C3)c1` (stereo not drawn) here?
**A.** inconclusive: 56.2 µM [inhibitor, partial curve]

**Q.** Which Potency does the source give for `CCCNC(=O)CN1CCN(c2ccc(NC(=O)c3ccc(OC)cc3)cc2C(=O)O)CC1` here?
**A.** inconclusive: 89.1 µM [inhibitor, single point]

**Q.** How did the activity change, negative = inhibition turn out when `CO/N=C/c1ccc(N2CCCC2)c([N+](=O)[O-])c1` was run?
**A.** inconclusive: -65.2% [inhibitor]

**Q.** How did the Potency turn out when `O=C1CC(Nc2ccc(N3CCOCC3)cc2)C(=O)N1c1ccccc1F` (stereo not drawn) was run?
**A.** inconclusive: 56.2 µM [inhibitor, partial curve]

**Q.** For `O=C(Sc1n[nH]c(=O)[nH]c1=O)c1ccccc1`, which Potency is on record?
**A.** active: 7.08 µM

**Q.** How did the “activity change, negative = inhibition” value turn out when `Cc1ccccc1C(=O)N1CCC(C(=O)Nc2ccc(F)cc2F)CC1` was run?
**A.** inactive: 2.08%

**Q.** How did the Potency turn out when `O=S(=O)(NC(=NCCc1ccc(Cl)cc1)c1ccccc1Cl)c1cccs1` was run?
**A.** inconclusive: 79.4 µM [inhibitor, single point]

**Q.** With `COc1cc(/C=C2\SC(=S)N(C(C(=O)O)c3ccccc3)C2=O)ccc1O` (stereo not drawn) as the molecule, how does the “activity change, negative = inhibition” value read?
**A.** inactive: -31.6%

**Q.** How did the Potency turn out when `O=C1ON=C(c2ccccc2)/C1=C/c1ccc(-c2ccccc2[N+](=O)[O-])o1` was run?
**A.** active: 28.2 µM

**Q.** For `CCc1ccc(Nc2sc(C(=O)c3ccccc3)c(N)c2S(C)(=O)=O)cc1`, which Potency is on record?
**A.** inconclusive: 31.6 µM [inhibitor, full curve]

**Q.** `Cc1cc(C)c(S(=O)(=O)NCC23C=CC(O2)C2C(=O)N(c4ccccc4)C(=O)C23)c(C)c1` (stereo not drawn) was tested. Which Potency did it give?
**A.** active: 50.1 µM

**Q.** For `CCOC(=O)N1CCN(S(=O)(=O)c2ccc(C(=O)N(CCN(C)C)c3nc4ccc(CC)cc4s3)cc2)CC1`, which Potency is on record?
**A.** inconclusive: 28.2 µM [inhibitor, full curve]

**Q.** `O=C(Nc1ccccc1N1CCCCC1)c1ccc(-c2ccc(Cl)cc2)o1` was tested. Which Potency did it give?
**A.** inconclusive: 89.1 µM [inhibitor, single point]

**Q.** With `CCOc1ccc(-n2c(C)cc(/C=N\NC(=O)CC(=O)NC3CCCCC3)c2C)cc1` as the molecule, how does the Potency read?
**A.** inconclusive: 50.1 µM [inhibitor, partial curve]

**Q.** For `CCOC(=O)c1[nH]c(C)c(CCC(=O)N2CCN(c3cccc(C)c3C)CC2)c1C`, which Potency is on record?
**A.** inconclusive: 56.2 µM [inhibitor, partial curve]

**Q.** How did the Potency turn out when `CN1CCN(c2ccc(S(=O)(=O)N3CCCCC3)cc2NC(=O)c2ccc3ccccc3c2)CC1` was run?
**A.** inconclusive: 10 µM [inhibitor, full curve, poor fit]

**Q.** `O=C(CN1C(=O)C(=O)N(CCC2=CCCCC2)C1=O)Nc1ccc(F)cc1F` was tested. Which “activity change, negative = inhibition” value did it give?
**A.** inactive: -6.01%

**Q.** With `NC1=C(Cl)C(=O)c2ccccc2C1=O` as the molecule, how does the Potency read?
**A.** active: 89.1 µM

**Q.** With `O=[n+]1cc(-c2ccc(F)cc2)n([O-])c2c1CCC2` as the molecule, how does the Potency read?
**A.** inconclusive: 56.2 µM [inhibitor, partial curve]

**Q.** With `CCNC(=O)CCSc1nc(C)cc(C)n1` as the molecule, how does the activity change, negative = inhibition read?
**A.** inconclusive: -44.9% [inhibitor]
